# The full ranking holds about 33,000 sequences; the median of “E-score (-0.5 to 0.5)” is about -0.054, and the highest 2% start at about 0.35. Some of the results follow.
# Target: T1, Stb5 (UniProt P38699)
# T1 sequence: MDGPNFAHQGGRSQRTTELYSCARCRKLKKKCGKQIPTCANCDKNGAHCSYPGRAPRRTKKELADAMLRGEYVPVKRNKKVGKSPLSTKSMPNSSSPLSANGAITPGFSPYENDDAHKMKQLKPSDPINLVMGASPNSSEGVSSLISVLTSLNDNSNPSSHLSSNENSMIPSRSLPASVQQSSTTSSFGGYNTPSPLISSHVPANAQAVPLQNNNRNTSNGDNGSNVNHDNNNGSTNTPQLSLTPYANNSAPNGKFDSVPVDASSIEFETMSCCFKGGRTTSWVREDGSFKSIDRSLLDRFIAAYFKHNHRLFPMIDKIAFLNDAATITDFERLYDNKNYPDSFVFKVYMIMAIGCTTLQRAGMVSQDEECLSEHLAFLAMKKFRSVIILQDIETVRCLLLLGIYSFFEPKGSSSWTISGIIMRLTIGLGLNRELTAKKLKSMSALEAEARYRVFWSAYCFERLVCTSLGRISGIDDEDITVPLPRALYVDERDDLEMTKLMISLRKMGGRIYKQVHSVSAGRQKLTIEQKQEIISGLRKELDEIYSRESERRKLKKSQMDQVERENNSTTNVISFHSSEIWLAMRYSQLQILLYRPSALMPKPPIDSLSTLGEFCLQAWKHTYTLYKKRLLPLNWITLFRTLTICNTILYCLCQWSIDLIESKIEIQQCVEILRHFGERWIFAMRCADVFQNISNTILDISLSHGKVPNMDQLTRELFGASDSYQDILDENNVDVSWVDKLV
# Assay: PBM E-score (8-mer binding enrichment) (E-score (-0.5 to 0.5)); higher = stronger / more preferred TF binding; most listed sequences are background and not binding sites
# Conditions: protein concentration: 200 nM; construct: GST-full length
# Summary of the method: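 E-scores (a modified Wilcoxon-Mann-Whitney statistic) were assigned by the Universal PBM Analysis Suite to every ungapped eight-base word pooled with its reverse complement. The input came from universal all-10-mer Agilent arrays made double-stranded by primer extension and probed with GST-tagged yeast transcription factors at about 100-200 nM. Fluorescent anti-GST detected bound protein, and masliner normalised the scans.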
row,Sequence,PBM E-score
1,TGGCCCAA,-0.151
2,CCACGGCG,0.304
3,CCGGTGGA,0.21
4,AGTGATTG,-0.118
5,ACGAGTGG,-0.163
6,ATTCTAGA,-0.117
7,ACGTCGTA,-0.102
8,ATCGCAGA,-0.152
9,ACTAAGCG,0.0755
10,ACCCTAAC,0.101
11,GTGAGTGA,-0.2
12,GACTACAC,-0.0555
13,AATGATAG,-0.00794
14,ATCGTTTG,-0.205
15,GCCAAAGC,-0.0229
16,TACCGACA,0.356
17,AAATGGTC,-0.019
18,AAAGCCAT,-0.188
19,CGCATTCC,0.00521
20,ATCTCAGC,-0.0916
21,AACATCAG,-0.13
22,CACGGCAA,0.174
23,CACAGGGC,-0.0583
24,CGTGCCCA,-0.111
25,TACGGAAA,0.0885

row,Sequence,PBM E-score
1,GGGTCTAC,0.178
2,GGTCAGGA,-0.102
3,CTGTTAGA,-0.105
4,CTTCCTAC,-0.111
5,GGATAGCA,-0.0723
6,CTAACTTA,0.00936
7,GCACCTGC,-0.0186
8,ATAGTGTG,-0.0725
9,GAACCAGC,-0.231
10,CACGGATC,0.256
11,ACCTAAAT,0.0871
12,TGTCAGAA,-0.188
13,ACGTTGAA,-0.0556
14,ATGCAACC,-0.0387
15,GCTACAAA,-0.152
16,CACTATTC,-0.0554
17,AAGGATGA,-0.167
18,CATGCACG,-0.0439
19,AAGTTCGG,0.251
20,AAGAGATG,-0.239
21,CTGGACCA,-0.0639
22,ACACTTGG,-0.0843
23,GGTGCCAA,0.163
24,ACTTCGAG,-0.00931
25,ATCGGCTC,0.104

row,Sequence,PBM E-score
1,AGAATTCC,0.00074
2,GACCTTGA,-0.18
3,AGACGTTA,-0.158
4,AAACATCA,-0.192
5,AGGTAGGG,-0.218
6,TGATTGCA,-0.101
7,ACCCGCAC,0.216
8,CAGGGATC,-0.12
9,AGGACTCG,-0.251
10,GACAAATA,0.237
11,CAGACGGG,0.179
12,AAATCCCG,0.411
13,AGGATTGC,-0.344
14,CGCCGCTC,0.349
15,ATGATATC,-0.122
16,CCCCACGC,-0.13
17,ATGAGCCA,-0.237
18,CCCGCCTA,0.302
19,GGATTAAC,0.175
20,AAGCCCGA,0.43
21,CGTCTAGC,0.0675
22,AATAAGAC,-0.00827
23,ATCGACCA,-0.242
24,CGAGAATC,-0.0495
25,ACACAATC,0.0152

row,Sequence,PBM E-score
1,CGTAGTAA,-0.0735
2,ACAGACGA,-0.146
3,AATGCGAT,-0.0612
4,AATCCAGG,-0.254
5,TCCGAGCA,0.197
6,GAAGGCAA,-0.234
7,AAGATATG,-0.0526
8,CCAAAGGC,-0.0282
9,ACCTAGCA,-0.211
10,ACGTCAGC,-0.167
11,GCTATGAC,0.129
12,AGCCAATC,0.0243
13,CCGTCACG,0.211
14,GAGTGGAA,-0.103
15,AGGGCCAA,-0.14
16,AGTATGCC,0.0352
17,CATGGATC,0.0909
18,CTAGCTCA,-0.237
19,AGGAGCAA,-0.169
20,CTGGTCGA,-0.024
21,GATAGTTA,0.0184
22,AATTCGAA,-0.0427
23,ACGGTTTC,-0.0169
24,GCACATAC,0.101
25,ACGTCTCA,-0.324

row,Sequence,PBM E-score
1,CACGTGAG,-0.189
2,CCGCAAAG,0.185
3,GCCCGATA,0.221
4,AAACCCGT,0.318
5,CCGGCTTA,0.239
6,GATTCAGA,-0.0219
7,CCCTACAG,-0.239
8,ACGCTTCA,-0.319
9,ATCTTCAC,0.0523
10,AGCTCCCC,-0.226
11,ACATATGT,-0.093
12,ACAGCGGC,0.274
13,CGATCTGA,-0.112
14,ACGGTGTC,0.408
15,CTCTCCAG,-0.243
16,GACCGCTC,0.267
17,AAATTGCA,-0.117
18,AGTTGTCC,-0.0384
19,GTCTACGA,-0.188
20,ATTGAGTC,0.0139
21,CGGAACGA,0.107
22,GTCTAACA,0.0742
23,GCGCGATA,-0.048
24,AGGACAAA,-0.167
25,TGCAGAAA,-0.0798

row,Sequence,PBM E-score
1,CATCTATC,-0.00316
2,AGTAGGTG,0.103
3,TCGGGACA,0.113
4,GACCCTGA,-0.0347
5,AAACCGCA,0.0164
6,CCCGGTTC,0.185
7,CACGTTCA,-0.137
8,GTCTCAGA,-0.0138
9,CGATAAAC,-0.0105
10,GTACCGTA,0.212
11,CAAACGTA,-0.103
12,ACTGACCT,-0.172
13,CTCTATCA,-0.0979
14,GGAAAACA,-0.00754
15,GATTGGGC,0.033
16,CAGTACGG,0.0749
17,ATGTTTTG,-0.0741
18,AGGCTACC,-0.128
19,CGCTATAC,0.18
20,GCGTCAGC,0.124
21,GCTTGCCC,-0.245
22,GAGAATTA,-0.0905
23,AGAATCCA,-0.146
24,ACCTCCGG,0.372
25,CGACTCGC,-0.0333

row,Sequence,PBM E-score
1,GATTAGTA,0.0787
2,GTATGTTA,0.131
3,AAGATATT,-0.143
4,GATTAATA,0.159
5,GGGGAATA,0.174
6,TAAAACAA,-0.0975
7,ATAACGAC,0.124
8,CCAACGAC,-0.118
9,ACCAGACC,-0.111
10,CCCACGAC,-0.00847
11,TCGGGGAA,0.302
12,CCAACTCC,0.116
13,AATTGAGC,-0.186
14,CGGGTTAG,0.0695
15,AAGGTCAG,-0.206
16,AGTCCGCG,0.339
17,GAGTGAGC,-0.108
18,CTATTGGC,-0.0713
19,CGAGGGAA,-0.0535
20,GGGAACAA,0.205
21,ACATCTTA,-0.269
22,ACTCGTCT,-0.225

# Source: the supplement of paper PMC3334620
